This note sets out measurements from ChEMBL document CHEMBL4888484, “Replenishing the malaria drug discovery pipeline: Screening and hit evaluation of the MMV Hit Generation Library 1 (HGL1) against asexual blood stage Plasmodium falciparum ,using a nano luciferase reporter read-out” (2022).

In all, about 150,000 compounds went through this assay and about 540 (0.36%) showed an effect of 50% or more. The list shows a part of the results.

This assay relates to Plasmodium falciparum. As to the kind of experiment: Primary screen in NF54 nanoGlo assay, in single point, at 2uM, 72h; a lower Z score goes with more inhibition. The class given is functional, Erythrocyte. The conditions noted are these: timepoint 72 hour.
Regarding `O=C1C2C3CCC(C3)C2C(=O)N1C1CCN(Cc2ccccc2)CC1` (stereo unspecified), the “% Inhibition” value is -11% and the Z score was determined as 1.21.
The corresponding values for `CC1(C)NC(=O)CC[C@@H]1NS(=O)(=O)c1ccc(OCC(F)F)cc1` are -5% and 0.7.
In the case of `C=Cc1ccc(S(=O)(=O)N2CCC[C@H](N3CCCS3(=O)=O)C2)cc1`, the “% Inhibition” value was found to be 2% and the Z score is listed as -0.2.
For `Cc1c(C(=O)N2CCCC[C@@H]2COC(=O)N2CCOCC2)sc2nccn12`, the “% Inhibition” value is reported as -48% and the Z score is on record as 5.63.
Taken in the same sequence, the figures for `O=C(NC(c1ccccc1)c1ccccc1)[C@@H]1CCCN1S(=O)(=O)c1ccc2c(c1)OCCO2` were -12% and 2.12.
For `CCCC[C@@H](COC)NC(=O)Cc1ccccc1O`, the “% Inhibition” value is -5% and the Z score is reported as 0.67.
As to `CN(C)[C@@H](CNC(=O)NCc1cccs1)c1csc2ccccc12`, the “% Inhibition” value is listed as -7% and the Z score amounted to 0.75.
`Cn1cnc(C(=O)N2CC3CCC3(Nc3nc(C4CCCCC4)ns3)C2)c1` (stereo unspecified): the “% Inhibition” value is given as -18% and the Z score worked out at 1.97.
The corresponding values for `CN(Cc1csc(-c2ccccc2)n1)C(=O)COC[C@H]1CCCO1` are -4% and 0.72.
Consider `O=C(N[C@@H]1CN(Cc2cc(F)ccc2F)C[C@H]1CO)c1cccnc1`, for which the “% Inhibition” value is reported as -10% and the Z score is 1.78.
The corresponding values for `C[C@@H](CS(=O)(=O)Nc1ccn(CC(F)F)n1)c1ccccc1` are -7% and 0.8.
Taken in the same sequence, the figures for `COc1cccc(CNC(=O)C2=Nc3ccccc3S(=O)(=O)N2)c1` were -14% and 1.58.
As for `CN1CCN(c2nc(-c3ccc(F)cc3)c3c(N)n(-c4ccccc4)nc3n2)CC1`, the “% Inhibition” value is recorded as -18% and the Z score is listed as 1.91.
On to `CCOC[C@H]1CCCN1C(=O)c1cnc2ccccn2c1=O`, for which the “% Inhibition” value is -2% and the Z score worked out at 0.35.
For the compound `Cc1ccc(C(=O)Nc2ccc(N[C@@H](C)c3ccccc3)c(Cl)c2)cn1`, the “% Inhibition” value was -7% and the Z score is recorded as 0.67.
Take `O=C(CCCc1ccccc1)Nc1ccc(-c2cn3ccccc3n2)cc1`: the “% Inhibition” value is recorded as -8% and the Z score stood at 1.52.
Taken in the same sequence, the figures for `O=C(CC1(O)CCCC1)N[C@H]1CCN(c2ncc[nH]c2=O)C1` were -9% and 1.19.
Taken in the same sequence, the figures for `CCC[N+]1(CC#C[C@@](O)(c2ccccc2)C(C)(CC)CC)CCCCC1` were 54% and -8.65.
In the case of `CN(Cc1ccccc1)CC(C)(C)NC(=O)NCc1nccn1C`, the “% Inhibition” value was -4% and the Z score worked out at 0.52.
The corresponding values for `Nc1ccc(S(=O)(=O)N2CC3(CCOCC3)[C@@H]2C2CC2)cc1` are -8% and 0.79.
Taken in the same sequence, the figures for `CC(C)(C)C(=O)NCCNc1ccc(F)cn1` were -10% and 1.15.
For `Cc1nc(CNCc2cccnc2N2CCN(C)CC2)cs1`, the “% Inhibition” value was -6% and the Z score was 0.88.
Take `CC(C)Cc1ccc(CN2C[C@@H]3CC[C@H]2CN(Cc2ccccn2)C3)s1`: the “% Inhibition” value worked out at 4% and the Z score is recorded as -0.77.
Taken in the same sequence, the figures for `COC(=O)c1cn(CCc2c[nH]c3ccccc23)cc(C(=O)OC)c1=O` were 31% and -1.14.
As for `O[C@H]1CCCC[C@@H]1n1cnc(-c2ccccc2)c1-c1cccc2ncccc12`, the “% Inhibition” value was 0% and the Z score was determined as 0.05.
With `CCC[N+](CC#CCO)(CC#Cc1ccccc1)CCC`, the “% Inhibition” value is -12% and the Z score turned out to be 1.05.
The corresponding values for `O=C1CCC[C@H]2[C@@H]3C[C@H](CN(c4ccncc4F)C3)CN12` are -1% and 0.11.
Consider `CN(C)S(=O)(=O)N1CCCN(C(=O)CC(C2CCC2)C2CCC2)CC1`, for which the “% Inhibition” value is 0% and the Z score is listed as -0.04.
The corresponding values for `COCC[C@]1(NS(=O)(=O)c2ccccc2)CCN(S(=O)(=O)C2CC2)C1` are -4% and 0.54.
Taken in the same sequence, the figures for `O=C(NC1(c2nccs2)CCCC1)[C@@H]1CCN(c2ccc(F)cc2)C1=O` were 6% and -0.9.
Taken in the same sequence, the figures for `CCCN1CCC[C@H]1CNC(=O)C1(C)CCc2ccccc21` (stereo partly specified) were -6% and 0.7.
For `Cc1nn(C(C)(C)C)cc1C(=O)N(C)CCc1nccs1`, the “% Inhibition” value is reported as -14% and the Z score was 1.41.
`O=C(N[C@@H](CO)C1CCCC1)c1ncoc1C1CC1`: the “% Inhibition” value was -7% and the Z score is 0.92.
Take `CN1CCC(N(CCc2ccccc2)Cc2cscn2)CC1`: the “% Inhibition” value is given as -10% and the Z score is 1.35.
As to `COc1ccc(F)cc1CN1CCN(CC(=O)N[C@H]2CCCc3ccccc32)CC1`, the “% Inhibition” value is given as -2% and the Z score is 0.28.
The corresponding values for `O=C(O)[C@H]1CC(=O)N(CCc2c[nH]c3ccc(Cl)cc23)C1` are 0% and -0.01.
`CC(C)(O)C#Cc1ccc(CN2CCC[C@@](CO)(CCc3ccccc3)C2)s1`: the “% Inhibition” value is listed as -15% and the Z score turned out to be 1.34.
For `CCOCCC1(C(=O)Nc2cc(C)c(NC(C)=O)c(C)c2)CCCC1`, the “% Inhibition” value is -10% and the Z score is 1.38.
Taken in the same sequence, the figures for `COc1ccccc1[C@@H]1CC(c2ccccc2F)=NN1C(=O)CN(CCN1CCOCC1)C(=O)NC(C)(C)C` were -24% and 2.32.
Taken in the same sequence, the figures for `CN(CCN1CCCCC1)C(=O)c1cccn1C` were -2% and 0.36.
For the compound `CCc1csc([C@H]2CCCN(CCC(=O)O)C2)n1`, the “% Inhibition” value worked out at 3% and the Z score is listed as -0.36.
For `COc1ccccc1CC(=O)NCCn1cccc1-c1nc(-c2ccccc2)no1`, the “% Inhibition” value is listed as -10% and the Z score is 1.33.
Turning to `CO[C@H]1[C@@H]2CC[C@H]1CN(C(=O)NCc1c(Cl)cccc1Cl)C2`, the “% Inhibition” value is given as -24% and the Z score turned out to be 4.19.
The corresponding values for `COc1cc(C(=O)NC[C@H]2CCCC[C@@H]2O)ncn1` are -8% and 1.08.
Taken in the same sequence, the figures for `CCOc1ccc(-c2noc(CN3N=NC4C(=O)N(c5ccc(C)cc5)C(=O)C43)n2)cc1OC` (stereo unspecified) were -7% and 0.91.
As to `Cc1ccc(S(=O)(=O)N(C)c2ccc3sc(C(=O)N4CCCC4)cc3c2)cc1`, the “% Inhibition” value was -6% and the Z score is given as 0.85.
For `CO[C@H]1COCC[C@@H]1NC(=O)c1cccc(C)n1`, the “% Inhibition” value came to 5% and the Z score is -0.88.
The corresponding values for `Cc1ccc([C@H]2c3cc(OCc4nc(C(=O)NCc5ccc(F)cc5)co4)ccc3CCN2C(=O)CC(C)C)cc1` are -7% and 0.97.
Take `Cc1noc2ncnc(NCc3nnc4ccccn34)c12`: the “% Inhibition” value was -5% and the Z score was 0.49.
In the case of `COc1cc(C(=O)N2CCC3(CCNC(=O)CC3)CC2)nc(OC)n1`, the “% Inhibition” value was -6% and the Z score was found to be 0.82.
Regarding `O=C(c1cc(C2CC2)on1)N1CC(S(=O)(=O)C2CCCCC2)C1`, the “% Inhibition” value is listed as -10% and the Z score is given as 1.32.
Turning to `O=C(Nc1ncc(C2CCNCC2)s1)[C@H]1CCc2cn[nH]c2C1`, the “% Inhibition” value is given as -2% and the Z score is given as 0.36.
Consider `Cc1cccnc1CC(=O)NCC1(N(C)C)CCCC1`, for which the “% Inhibition” value is -8% and the Z score is on record as 0.91.
The corresponding values for `O=C(O)c1cccc(OCCNC(=O)[C@H]2CC23CCCCC3)c1` are -9% and 0.97.
The corresponding values for `CCCOc1ccc(-c2noc(C)n2)cc1OC` are -9% and 1.42.
Taken in the same sequence, the figures for `CC(NCCC(C)(C)C)C(C)N1CCOCC1` (stereo unspecified) were 1% and -0.14.
Take `CNC(=O)C[C@H]1CCN(Cc2ccc3c(c2)OCCO3)C1`: the “% Inhibition” value is -11% and the Z score came to 1.51.
The corresponding values for `COc1ccc(CNC(=O)C(=O)Nc2ccc(N3CCCS3(=O)=O)cc2)cc1` are -14% and 1.82.
Regarding `Cc1nn(Cc2ccc(Cl)cc2)c(=O)n1-c1ccc(OCc2ccccc2)cc1`, the “% Inhibition” value was 41% and the Z score is -5.24.
The corresponding values for `CO[C@@H](C)c1nc(C)c(C(=O)NCCC(F)(F)F)s1` are 5% and -0.92.
Turning to `Cc1cc(N(C)C)nc(CNS(=O)(=O)c2cccs2)n1`, the “% Inhibition” value was -8% and the Z score was 1.46.
Consider `Cc1csc(C(NC(=O)N2CCCC2CN2CCCC2)C2CC2)n1` (stereo unspecified), for which the “% Inhibition” value was 5% and the Z score is -0.45.
The corresponding values for `Cc1ccc(Cc2nc(N3CCCN(C(=O)Nc4ccc(Cl)c(Cl)c4)CC3)c3c(-c4cccnc4)noc3n2)cc1` are 0% and 0.01.
As for `CC(C)NC(=O)CS(=O)(=O)Cc1cccs1`, the “% Inhibition” value stood at 5% and the Z score is recorded as -0.7.
`CC(C)c1nc([C@@H]2CCCCCN2C(=O)c2ccc(C(N)=O)cn2)no1`: the “% Inhibition” value is recorded as -13% and the Z score is 1.63.
Turning to `Cc1cc(-c2cccc(C(=O)N3CCC4(CCO4)CC3)c2)c(=O)[nH]c1C`, the “% Inhibition” value was -11% and the Z score was 2.25.
Consider `COC[C@H](C)NCc1cc(F)ccc1F`, for which the “% Inhibition” value is recorded as 0% and the Z score was determined as 0.01.
As for `COCCCNC(=O)Cn1nc2n(c1=O)CCN(Cc1ccccc1F)C2=O`, the “% Inhibition” value is reported as -1% and the Z score amounted to 0.12.
As for `O=C(COc1ccc2ccccc2c1)Nc1ccccn1`, the “% Inhibition” value was -11% and the Z score is 1.71.
For `CN(Cc1n[nH]c(=O)n1Cc1ccc(Cl)cc1Cl)S(C)(=O)=O`, the “% Inhibition” value is -10% and the Z score amounted to 1.11.
Consider `CC(C)Oc1cccc(C(=O)NC2CC3CCC(C2)N3CC(=O)N(C)C)n1` (stereo unspecified), for which the “% Inhibition” value was -1% and the Z score turned out to be 0.13.
Taken in the same sequence, the figures for `CC[C@@H]1Oc2ccc(NC(=O)c3ccc(Cl)cc3)cc2CN(Cc2ccc(F)cc2)C1=O` were -11% and 1.75.
Taken in the same sequence, the figures for `C[C@@H](C(=O)N1CCC2(CCc3ccccc32)CC1)c1n[nH]c(=O)c2ccccc12` were -15% and 1.49.
With `O=C(N[C@@H]1COCC[C@@H]1OCC1CC1)c1nc2ccccc2[nH]1`, the “% Inhibition” value was 3% and the Z score is listed as -0.51.
On to `C[C@H](NCc1ncnn1C)c1cccc(OC(F)F)c1`, for which the “% Inhibition” value is given as -7% and the Z score came to 0.65.
On to `CCc1nc([C@@H]2C[C@@H](O)CN2C(=O)C(F)=C(C)C2CC2)n[nH]1`, for which the “% Inhibition” value is recorded as 2% and the Z score is recorded as -0.39.
The corresponding values for `CC(C)S(=O)(=O)Cc1ccc(N[C@H]2CCOC2=O)cc1` are 5% and -0.75.
Taken in the same sequence, the figures for `CCC#CCN1CCC2(CCC(=O)N(Cc3ccccc3)C2)CC1` were -11% and 2.19.
Consider `CC1CCN(C[C@@H](O)CNC(=O)C(C)(C)CC(=O)c2ccc(Cl)cc2)CC1`, for which the “% Inhibition” value is given as -4% and the Z score was 0.41.
Taken in the same sequence, the figures for `CC(C)N(CCN(C)C)c1ccc(C(F)(F)F)nn1` were -6% and 0.75.
As to `O=C(NCc1ccc(F)cc1F)c1ccc(-c2cccs2)nc1`, the “% Inhibition” value is reported as -20% and the Z score is recorded as 3.73.
Consider `C[C@@H](c1nc(-c2cccs2)no1)N(C)CCn1cccn1`, for which the “% Inhibition” value is 0% and the Z score came to 0.
The corresponding values for `Cc1ccc(OCC(=O)N(Cc2cccc3ccccc23)c2ccccn2)cc1` are 18% and -2.11.

What is called % Inhibition is the change of the read-out against control, counted positive when it falls.
